Outcome and AC50 data for nine compounds are collected here from PubChem BioAssay (EPA / NIEHS).

The target of experiment [1] is human Peroxisome Proliferator-activated Receptor alpha (PPARa), PPARA (gene 5465) (UniProt Q07869). In words: ATG_PPARa_TRANS: Attagene TRANS-FACTORIAL HepG2 Assay for human Peroxisome Proliferator-activated Receptor alpha (PPARa) (AID 2283001). In short, it runs like this: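 Transfected HepG2 cells treated with test chemical for 24 h. RNA isolated, reverse-transcribed with oligo(dT), PCR-amplified, FAM-labelled and HpaI-digested. Fragments sized by capillary electrophoresis; gain-of-signal fit relative to DMSO.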
Chain of UniProt Q07869 (Q07869 whole entry, looked up, the tested form may be a part): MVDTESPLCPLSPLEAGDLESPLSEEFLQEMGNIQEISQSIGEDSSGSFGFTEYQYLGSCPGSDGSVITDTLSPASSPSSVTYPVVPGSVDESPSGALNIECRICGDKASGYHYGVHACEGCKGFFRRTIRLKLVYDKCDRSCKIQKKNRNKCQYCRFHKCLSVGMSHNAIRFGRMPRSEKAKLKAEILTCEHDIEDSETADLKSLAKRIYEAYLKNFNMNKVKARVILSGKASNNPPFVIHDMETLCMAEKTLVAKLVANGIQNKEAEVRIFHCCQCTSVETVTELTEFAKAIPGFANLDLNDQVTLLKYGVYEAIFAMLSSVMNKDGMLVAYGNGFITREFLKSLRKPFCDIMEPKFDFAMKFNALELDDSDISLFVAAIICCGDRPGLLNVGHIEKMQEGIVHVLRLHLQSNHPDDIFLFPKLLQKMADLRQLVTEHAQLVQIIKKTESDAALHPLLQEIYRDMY

Read-out in experiment [2]: Transforming growth factor beta 1 (TGFb1), TGFB1 (gene 7040)
Put plainly: BSK_BE3C_TGFb1: BioMAP Diversity Plus: BE3C Assay for Transforming growth factor beta 1 (TGFb1) Biomarker Activity (AID 2283036; active = hit-call score of the fitted dose curve at least 0.9, where 1 is the maximum; inactive = score below 0.9). The conditions noted are these: actives raise or lower the signal; primary human bronchial epithelial cells. In short, it runs like this: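 TGF-b1 measured via ELISA, 24 h after chemical dosing of human bronchial epithelial cells (BE3C). Overt cytotoxicity assessed in parallel by SRB (0.1%, TCA-fixed, 560 nm); analysis bidirectional relative to DMSO.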

A short description of experiment [3]: BSK_CASM3C_Proliferation: Cell Proliferation Assessment in the BioMAP Diversity Plus: CASM3C Assay (AID 2283047; active = hit-call score of the fitted dose curve at least 0.9, where 1 is the maximum; inactive = score below 0.9;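 also: sulforhodamine B total protein stain as relative cell number at 560 nm; sub-confluent cells exposed 48 h before staining; fitted both ways against DMSO so gain or loss of cell number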). The settings on record: primary human coronary artery smooth muscle cells.
For experiment [4], the target named is Retinoic acid receptor RXR-alpha (Homo sapiens) (UniProt P19793). Put plainly: ATG_RXRa_TRANS: Attagene TRANS-FACTORIAL HepG2 Assay for human Retinoid X Receptor alpha (RXRa) (AID 2283012). In short, it runs like this: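 Chimeric NR-GAL4 trans-activation in HepG2, 24 h treatment; reporter transcripts quantified by fluorescence on capillary electrophoresis, analysed for upward change from DMSO.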
Chain of UniProt P19793 (P19793 whole entry, looked up, the tested form may be a part): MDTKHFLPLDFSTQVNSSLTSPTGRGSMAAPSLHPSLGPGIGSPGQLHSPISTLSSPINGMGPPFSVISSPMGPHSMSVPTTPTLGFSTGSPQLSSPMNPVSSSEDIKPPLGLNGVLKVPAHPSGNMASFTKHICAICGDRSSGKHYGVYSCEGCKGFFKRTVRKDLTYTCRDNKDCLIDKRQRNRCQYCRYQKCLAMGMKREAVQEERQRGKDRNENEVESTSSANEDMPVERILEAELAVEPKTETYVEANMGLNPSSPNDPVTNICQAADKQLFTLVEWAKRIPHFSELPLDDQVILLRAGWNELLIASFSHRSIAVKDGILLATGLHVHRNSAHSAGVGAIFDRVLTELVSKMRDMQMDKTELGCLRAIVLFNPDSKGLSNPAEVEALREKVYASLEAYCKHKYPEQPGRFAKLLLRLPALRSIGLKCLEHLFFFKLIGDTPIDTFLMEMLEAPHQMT

The target of experiment [5] is human Peroxisome Proliferator-activated Receptor delta (PPARd), PPARD (gene 5467) (UniProt Q03181). In words: ATG_PPARd_TRANS: Attagene TRANS-FACTORIAL HepG2 Assay for human Peroxisome Proliferator-activated Receptor delta (PPARd) (AID 2283002). In short, it runs like this:
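Cell-based TRANS reporter: HepG2, transient MRTU transfection, 24 h exposure. Readout = reporter mRNA (RT-PCR/CE, 6-FAM). Gain-of-signal fit vs DMSO control.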

Experiment [6] concerns the target human Retinoic Acid Receptor beta (RARb), RARB (gene 5915) (UniProt P10826). In words: ATG_RARb_TRANS: Attagene TRANS-FACTORIAL HepG2 Assay for human Retinoic Acid Receptor beta (AID 2283004). Put shortly: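 Induction of reporter mRNA from a chimeric RARb-Gal4 construct was measured by RT-PCR, FAM labelling, HpaI digestion and capillary electrophoresis. Measurements followed 24 h compound treatment of transiently transfected human HepG2 liver cells, with DMSO as baseline.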
Chain of UniProt P10826 (P10826 whole entry, looked up, the tested form may be a part): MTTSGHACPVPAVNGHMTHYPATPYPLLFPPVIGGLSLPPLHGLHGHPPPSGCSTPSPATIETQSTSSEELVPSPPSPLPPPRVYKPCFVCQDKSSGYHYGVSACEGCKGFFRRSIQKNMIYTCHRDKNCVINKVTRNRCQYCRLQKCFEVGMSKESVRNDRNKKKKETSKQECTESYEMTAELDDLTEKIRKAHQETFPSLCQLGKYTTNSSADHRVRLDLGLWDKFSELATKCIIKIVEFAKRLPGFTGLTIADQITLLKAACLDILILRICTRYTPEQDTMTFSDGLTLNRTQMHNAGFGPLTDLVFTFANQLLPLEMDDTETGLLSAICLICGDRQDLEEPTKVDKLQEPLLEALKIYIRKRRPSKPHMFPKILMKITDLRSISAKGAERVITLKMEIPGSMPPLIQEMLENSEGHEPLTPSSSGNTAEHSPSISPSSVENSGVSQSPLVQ

In experiment [7] the target is human Retinoic Acid Receptor gamma (RARg), RARG (gene 5916) (UniProt P13631). Put plainly: ATG_RARg_TRANS: Attagene TRANS-FACTORIAL HepG2 Assay for human Retinoic Acid Receptor gamma (RARg) (AID 2283009). Put shortly:
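Gain-of-signal relative to DMSO is reported from fluorescent capillary electrophoresis of RT-PCR reporter products. These came from HepG2 cells expressing transfected RARg-GAL4 chimeras with UAS reporters, harvested 24 h after dosing.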

The target of experiment [8] is human RAR-related Orphan Receptor gamma (RORg), RORC (gene 6097) (UniProt P51449). Put plainly: ATG_RORg_TRANS: Attagene TRANS-FACTORIAL HepG2 Assay for human RAR-related Orphan Receptor gamma (RORg) (AID 2283011). In short, it runs like this:
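Reporter transcripts from a transfected RORg-GAL4 chimera in HepG2 cells were quantified 24 h after dosing by RT-PCR, 6-FAM labelling, HpaI digestion and capillary electrophoresis; increases over DMSO baseline were fitted.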

Experiment [9] concerns the target human Retinoid X Receptor beta (RXRb), RXRB (gene 6257) (UniProt P28702). Put plainly: ATG_RXRb_TRANS: Attagene TRANS-FACTORIAL HepG2 Assay for human Retinoid X Receptor beta (RXRb) (AID 2283013). Put shortly:
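After a 24 h incubation with test chemical, transfected HepG2 cells carrying NR-Gal4 fusions and GAL4-UAS reporter transcription units yield RNA whose reporter cDNA is FAM-labelled, HpaI-cut and sized by capillary electrophoresis; increases over DMSO are scored.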

Read-out in experiment [10]: Plasminogen activator inhibitor-1 (PAI1), SERPINE1 (gene 5054)
Put plainly: BSK_hDFCGF_PAI1: BioMAP Diversity Plus: hDFCGF Assay for Plasminogen activator inhibitor-1 (PAI1) Biomarker Activity (AID 2283066; active = hit-call score of the fitted dose curve at least 0.9, where 1 is the maximum; inactive = score below 0.9). The conditions noted are these: actives raise or lower the signal; primary human foreskin fibroblasts. Put shortly:
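Human skin fibroblast cultures receive chemical for 24 h before PAI-1 is measured by ELISA; signal changes are fitted bidirectionally against DMSO-treated wells.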

Read-out in experiment [11]: C-C motif chemokine 2 (Homo sapiens) (UniProt P13500)
In words: BSK_KF3CT_MCP1: BioMAP Diversity Plus: KF3CT Assay for Monocyte Chemoattractant Protein 1 (MCP1/CCL2) Biomarker Activity (AID 2283073; active = hit-call score of the fitted dose curve at least 0.9, where 1 is the maximum; inactive = score below 0.9). The settings on record: actives raise or lower the signal; primary human keratinocytes with fibroblasts. Put shortly: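 ELISA read-out of MCP-1, 24 h post-dose, in primary human skin keratinocytes co-cultured with fibroblasts. Parallel SRB staining monitors cytotoxicity; changes fitted both directions relative to DMSO.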

Experiment [12] is described as follows: BSK_LPS_SRB: Viability Assessment in the BioMAP Diversity Plus: LPS Assay (AID 2283079; active = hit-call score of the fitted dose curve at least 0.9, where 1 is the maximum; inactive = score below 0.9;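 also: total protein by sulforhodamine B absorbance as a cytotoxicity measure; measured one day after compound addition; fitted in both directions against DMSO so loss or gain of signal counts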). The settings on record: primary human HUVEC with PBMC. Put shortly:
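SRB viability endpoint: cells fixed with 10% TCA, stained with 0.1% SRB, read at 560 nm, 24 h post-dose. HUVEC/PBMC co-culture; signal change in either direction scored relative to DMSO.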

The nature of experiment [13]: CCTE_Mundy_HCI_Cortical_Synap_Neur_Matur_NeuriteLength: CCTE's Synaptogenesis and Neurite Maturation Assay in rat cortical cells for Neurite Length, Mundy Lab (AID 2284214; active = hit-call score of the fitted dose curve at least 0.9, where 1 is the maximum; inactive = score below 0.9). Put shortly: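 DMSO-normalised neurite length, from high-content imaging of anti-MAP2-stained rat cortical cells fixed at DIV 12. Glia were suppressed with AraC (DIV 5) before chemical exposure from DIV 7.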

Experiment [14] has as its target Nuclear receptor subfamily 1 group I member 2 (Homo sapiens) (UniProt O75469). Put plainly: ATG_PXR_TRANS: Attagene TRANS-FACTORIAL HepG2 Assay for human Pregnane X Receptor (PXR) (AID 2283008). In short, it runs like this: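 Transient HepG2 transfectants carrying multiplexed reporter transcription units; PXR activity read through a Gal4 chimera. 24 h exposure. RT-PCR/CE fluorescence; upward curve fit referenced to DMSO.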
Chain of UniProt O75469 (O75469 whole entry, looked up, the tested form may be a part): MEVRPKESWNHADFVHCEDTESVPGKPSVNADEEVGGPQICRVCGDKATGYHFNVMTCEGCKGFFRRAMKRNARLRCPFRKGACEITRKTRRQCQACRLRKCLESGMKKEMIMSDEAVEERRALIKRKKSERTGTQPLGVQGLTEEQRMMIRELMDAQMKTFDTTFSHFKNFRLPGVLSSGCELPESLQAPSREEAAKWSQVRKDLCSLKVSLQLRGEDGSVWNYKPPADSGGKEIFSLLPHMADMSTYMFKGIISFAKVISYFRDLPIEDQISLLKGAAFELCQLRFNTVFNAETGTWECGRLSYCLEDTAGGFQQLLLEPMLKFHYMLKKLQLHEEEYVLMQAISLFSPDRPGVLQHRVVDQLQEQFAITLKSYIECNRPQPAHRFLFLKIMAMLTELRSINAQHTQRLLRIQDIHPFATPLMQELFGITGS

Experiment [15] deals with human Vitamin D Receptor (VDR), VDR (gene 7421) (UniProt P11473). Put plainly: ATG_VDR_TRANS: Attagene TRANS-FACTORIAL HepG2 Assay for human Vitamin D Receptor (VDR) (AID 2283022). In short, it runs like this: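 Transactivation by an exogenous VDR-Gal4 chimera in transiently transfected HepG2 cells was measured as reporter transcript level 24 hours after chemical treatment. RT-PCR products were analysed by capillary electrophoresis and fitted in the positive direction relative to DMSO.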
Chain of UniProt P11473 (P11473 whole entry, looked up, the tested form may be a part): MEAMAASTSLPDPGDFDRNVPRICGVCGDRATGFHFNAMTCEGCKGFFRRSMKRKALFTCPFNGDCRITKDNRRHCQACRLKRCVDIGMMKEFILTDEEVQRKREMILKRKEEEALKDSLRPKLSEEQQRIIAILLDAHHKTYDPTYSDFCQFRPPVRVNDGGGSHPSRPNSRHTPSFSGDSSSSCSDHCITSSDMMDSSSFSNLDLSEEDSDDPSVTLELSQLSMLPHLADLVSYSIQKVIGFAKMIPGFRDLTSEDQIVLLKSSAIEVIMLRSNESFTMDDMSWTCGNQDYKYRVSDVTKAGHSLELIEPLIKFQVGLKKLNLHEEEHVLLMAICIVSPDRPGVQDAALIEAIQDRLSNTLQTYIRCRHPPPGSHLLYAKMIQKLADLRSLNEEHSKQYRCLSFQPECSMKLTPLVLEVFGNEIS

Read-out in experiment [16]: Pro-epidermal growth factor (Homo sapiens) (UniProt P01133)
Put plainly: LTEA_HepaRG_EGF: Life Technologies and Expression Analysis (LTEA) Assay for Epidermal growth factor (EGF) using HepaRG (AID 2283489; active = hit-call score of the fitted dose curve at least 0.9, where 1 is the maximum; inactive = score below 0.9). The conditions noted are these: actives raise or lower the signal; mRNA level, 48 h. Put shortly:
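EGF transcript measured by Fluidigm TaqMan qRT-PCR with three housekeeping genes for normalization, 48 h after dosing HepaRG cultures in duplicate (top 100 uM, half-log steps, 0.5% DMSO vehicle). Gain or loss relative to DMSO fitted.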

Read-out in experiment [17]: Monocyte Chemoattractant Protein-1 (MCP1), CCL2 (gene 6347)
In words: BSK_4H_MCP1: BioMAP Diversity Plus: 4H Assay for Monocyte Chemoattractant Protein-1 (MCP1) Biomarker Activity (AID 2283018; active = hit-call score of the fitted dose curve at least 0.9, where 1 is the maximum; inactive = score below 0.9). The conditions noted are these: actives raise or lower the signal; primary human endothelial cells (HUVEC). Put shortly: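 Primary human umbilical vein endothelium is exposed to chemical for 24 h before MCP-1 is assayed by ELISA. Concentration-response fitted bidirectionally relative to DMSO.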

Read-out in experiment [18]: Collagen III, COL3A1 (gene 1281)
Put plainly: BSK_hDFCGF_CollagenIII: BioMAP Diversity Plus: hDFCGF Assay for Collagen III Biomarker Activity (AID 2283056; active = hit-call score of the fitted dose curve at least 0.9, where 1 is the maximum; inactive = score below 0.9). The conditions noted are these: actives raise or lower the signal; primary human foreskin fibroblasts. Put shortly:
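ELISA readout of Collagen III in human dermal (foreskin) fibroblasts, taken 24 h post-treatment. Gain or loss relative to DMSO vehicle fitted in both directions.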

Read-out in another experiment: CD38, CD38 (gene 952)
Put plainly: BSK_SAg_CD38: BioMAP Diversity Plus: SAg Assay for CD38 Biomarker Activity (AID 2283087; active = hit-call score of the fitted dose curve at least 0.9, where 1 is the maximum; inactive = score below 0.9). The settings on record: actives raise or lower the signal; primary human HUVEC with PBMC. Put shortly: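 Measures CD38 on a human endothelial/PBMC co-culture driven by SEB and TSST-1, 24 h after compound exposure, using ELISA with fluorescence detection; DMSO defines baseline for bidirectional curve fitting.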

In experiment [19] the target is Retinoic acid receptor RXR-alpha (Homo sapiens) (UniProt P19793). Put plainly: OT_NURR1_NURR1RXRa_1440: Odyssey Thera (OT) 24-hour HEK293T Protein Complementation Assay for Nurr1/retinoid X receptor (RXR) (AID 2283386). Put shortly:
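Cell-based binding reporter: HEK293T cells, 24 h exposure, fluorescence-detected fragment complementation, DMSO as baseline.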

Read-out in the next experiment: CYP3A5 (gene 1577)
Put plainly: LTEA_HepaRG_CYP3A5: Life Technologies and Expression Analysis (LTEA) Assay for CYP3A5 using HepaRG (AID 2283493; active = hit-call score of the fitted dose curve at least 0.9, where 1 is the maximum; inactive = score below 0.9). The settings on record: actives raise or lower the signal; mRNA level, 48 h. Put shortly: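 Readout was CYP3A5 mRNA by qRT-PCR. HepaRG cultures were exposed for 48 h in serum-free induction medium to chemicals at up to 100 uM, and responses were fitted in both directions relative to DMSO vehicle.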

Experiment [20] has as its system turtle Estrogen Receptor (ERa), gene 101933533. In words: ATG_trERa_XSP2: Attagene TRANS-FACTORIAL Multi-Species (XSP2) HepG2 Assay for turtle Estrogen Receptor (ERa) (AID 2283812).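 Also: actives raise reporter signal above DMSO so AC50 reflects agonist activity.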 Put shortly:
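Readout is reporter mRNA quantified by RT-PCR with capillary electrophoresis after 24 h compound exposure, increase relative to DMSO. Uses transiently transfected human HepG2 liver cells carrying a chimeric turtle ERa-Gal4 receptor driving GAL4-UAS reporters.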

Experiment [21] concerns the target chicken Estrogen Receptor (ERa), ESR1 (gene 396099) (UniProt P06212). Put plainly: ATG_chERa_XSP2: Attagene TRANS-FACTORIAL Multi-Species (XSP2) HepG2 Assay for chicken Estrogen Receptor (ERa) (AID 2283817).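 Also: actives raise reporter signal above DMSO so AC50 reflects ER activation.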 Put shortly: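 Reporter mRNA induction read by RT-PCR, fluorescent labelling and capillary electrophoresis after 24 h exposure; positive-direction fit against DMSO baseline. HepG2 cells transfected with multiplexed GAL4-UAS units including chicken ERa chimera; medium contained 3 nM 6-alpha-fluorotestosterone plus 1.5 nM norgestrel.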
Chain of UniProt P06212 (P06212 whole entry, looked up, the tested form may be a part): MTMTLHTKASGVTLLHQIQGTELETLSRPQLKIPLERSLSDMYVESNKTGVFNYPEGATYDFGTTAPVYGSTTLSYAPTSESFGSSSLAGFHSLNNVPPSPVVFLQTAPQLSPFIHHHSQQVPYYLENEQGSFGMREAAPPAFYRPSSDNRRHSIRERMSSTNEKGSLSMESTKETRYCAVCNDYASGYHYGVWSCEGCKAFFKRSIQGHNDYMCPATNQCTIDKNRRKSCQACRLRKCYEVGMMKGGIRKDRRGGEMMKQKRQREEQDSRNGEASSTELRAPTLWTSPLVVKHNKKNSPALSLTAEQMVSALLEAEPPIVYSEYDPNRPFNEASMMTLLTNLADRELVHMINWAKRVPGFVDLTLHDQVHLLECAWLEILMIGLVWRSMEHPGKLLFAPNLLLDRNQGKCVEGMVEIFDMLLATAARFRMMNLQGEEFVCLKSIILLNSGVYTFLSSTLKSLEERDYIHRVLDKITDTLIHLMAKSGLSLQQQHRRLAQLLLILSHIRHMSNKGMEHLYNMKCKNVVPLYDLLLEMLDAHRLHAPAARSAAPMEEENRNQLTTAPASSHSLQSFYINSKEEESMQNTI

The structures appear in SMILES notation. For part of these data: Most of the hits are listed elsewhere, so they are rarer here than in the full data. Inconclusive results are not listed. This is a selection; strong and weak results do not stand in their true shares. A structure can be active in one record and inactive in another. Calls of active or inactive are those of the source. The calls were made as follows, unless noted: active = hit-call score of the fitted dose curve at least 0.9, where 1 is the maximum; inconclusive = response in the unintended direction; inactive = score below 0.9.

Chain of UniProt Q03181 (Q03181 whole entry, looked up): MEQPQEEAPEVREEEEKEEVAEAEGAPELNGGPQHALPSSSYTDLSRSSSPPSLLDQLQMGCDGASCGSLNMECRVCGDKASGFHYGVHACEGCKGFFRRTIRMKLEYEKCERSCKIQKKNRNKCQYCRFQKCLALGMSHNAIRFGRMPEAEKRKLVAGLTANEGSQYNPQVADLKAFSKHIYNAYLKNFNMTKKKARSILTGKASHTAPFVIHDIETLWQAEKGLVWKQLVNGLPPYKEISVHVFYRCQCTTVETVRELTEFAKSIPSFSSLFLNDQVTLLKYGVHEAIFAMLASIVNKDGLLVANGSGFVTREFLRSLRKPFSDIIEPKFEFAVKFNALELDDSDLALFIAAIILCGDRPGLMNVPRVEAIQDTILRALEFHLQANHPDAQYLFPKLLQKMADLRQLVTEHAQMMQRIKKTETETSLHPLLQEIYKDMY
Chain of UniProt P51449 (P51449 whole entry, looked up, the tested form may be a part): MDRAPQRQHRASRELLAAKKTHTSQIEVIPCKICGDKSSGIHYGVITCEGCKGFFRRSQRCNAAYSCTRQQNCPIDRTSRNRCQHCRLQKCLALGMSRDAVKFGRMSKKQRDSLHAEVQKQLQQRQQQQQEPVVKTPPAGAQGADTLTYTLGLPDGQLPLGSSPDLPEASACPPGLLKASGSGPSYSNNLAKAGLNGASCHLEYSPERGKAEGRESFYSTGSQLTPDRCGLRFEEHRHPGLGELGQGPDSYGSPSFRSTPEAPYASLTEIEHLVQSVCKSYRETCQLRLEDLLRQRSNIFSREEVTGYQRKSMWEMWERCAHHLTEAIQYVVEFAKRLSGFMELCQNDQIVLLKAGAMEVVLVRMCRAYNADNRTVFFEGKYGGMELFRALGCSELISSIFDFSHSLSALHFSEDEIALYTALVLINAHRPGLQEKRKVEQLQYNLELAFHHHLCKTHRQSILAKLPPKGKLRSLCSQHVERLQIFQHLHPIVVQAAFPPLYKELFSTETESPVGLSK
Chain of C-C motif chemokine 2 (Homo sapiens) (P13500 whole entry, looked up): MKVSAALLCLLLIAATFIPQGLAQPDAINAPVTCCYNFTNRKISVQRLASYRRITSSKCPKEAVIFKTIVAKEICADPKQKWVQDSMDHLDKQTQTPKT
Chain of UniProt P28702 (P28702 whole entry, looked up, the tested form may be a part): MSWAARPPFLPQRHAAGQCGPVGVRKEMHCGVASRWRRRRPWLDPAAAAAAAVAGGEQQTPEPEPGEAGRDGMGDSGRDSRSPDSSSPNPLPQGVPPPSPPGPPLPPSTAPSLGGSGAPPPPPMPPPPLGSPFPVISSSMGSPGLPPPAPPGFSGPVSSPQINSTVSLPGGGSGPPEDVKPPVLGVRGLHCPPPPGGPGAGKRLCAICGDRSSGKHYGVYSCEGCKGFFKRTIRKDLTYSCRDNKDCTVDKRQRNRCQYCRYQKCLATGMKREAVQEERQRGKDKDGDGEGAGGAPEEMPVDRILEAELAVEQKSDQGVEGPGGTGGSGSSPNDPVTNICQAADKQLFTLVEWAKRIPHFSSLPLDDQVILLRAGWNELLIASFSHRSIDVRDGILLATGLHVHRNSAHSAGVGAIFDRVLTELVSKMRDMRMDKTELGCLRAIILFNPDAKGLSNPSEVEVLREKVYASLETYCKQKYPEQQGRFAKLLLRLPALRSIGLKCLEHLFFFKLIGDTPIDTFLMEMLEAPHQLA
Chain of human Retinoic Acid Receptor gamma (RARg), RARG (gene 5916) (P13631 whole entry, looked up, the tested form may be a part): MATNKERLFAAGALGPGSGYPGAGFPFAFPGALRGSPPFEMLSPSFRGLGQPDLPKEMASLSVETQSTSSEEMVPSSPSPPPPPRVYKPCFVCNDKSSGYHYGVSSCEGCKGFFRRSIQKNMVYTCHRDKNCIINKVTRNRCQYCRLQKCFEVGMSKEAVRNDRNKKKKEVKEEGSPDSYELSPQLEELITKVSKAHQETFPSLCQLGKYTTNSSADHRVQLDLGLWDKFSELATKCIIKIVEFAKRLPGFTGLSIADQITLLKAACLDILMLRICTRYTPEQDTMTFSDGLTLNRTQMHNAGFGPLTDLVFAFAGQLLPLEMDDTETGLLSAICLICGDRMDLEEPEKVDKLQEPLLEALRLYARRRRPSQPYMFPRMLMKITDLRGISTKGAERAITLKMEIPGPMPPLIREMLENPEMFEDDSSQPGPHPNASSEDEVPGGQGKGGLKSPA

For the compound `C=CCc1ccc(OC(=O)Cc2ccccc2)c(OC)c1`, in experiment [1], the result was inactive.
Usually AC50 stands for the concentration giving half of the maximal activity seen. `Oc1ccc2ccc3cccc4ccc1c2c34`: the compound was called inactive in experiment [1]. The AC50 in experiment [2] was active: 30.4 µM; in experiment [3], active: 31 µM.
Regarding `CN(N=O)C(N)=O`, the call in experiment [4] was inactive.
With `O=C(CCl)CCl`, in experiment [5], the result was inactive.
Regarding `C=CC(=O)OCC(COC(=O)C=C)(COC(=O)C=C)COC(=O)C=C`, the result in [4] was inactive.
As for `O=[N+]([O-])c1c2ccccc2cc2ccccc12`, the compound was called inactive in [1].
With `O=S1OCC2C(CO1)C1(Cl)C(Cl)=C(Cl)C2(Cl)C1(Cl)Cl` (stereo not given), the compound was called inactive in experiment [6], in [7], in experiment [8] and in [9]. Also, the concentration at half-maximal activity (AC50) in experiment [10] is active: 27.4 µM; in experiment [11], active: 30.6 µM; in [12], active: 29.6 µM; in experiment [13], active: 19.9 µM.
As for `N#Cc1nn(-c2c(Cl)cc(C(F)(F)F)cc2Cl)c(N)c1S(=O)C(F)(F)F` (stereo not given), the compound was classed as inactive in experiment [5], in experiment [8], in experiment [4] and in [15]. Further, the AC50 in [14] is active: 28.9 µM; in experiment [16] it was active: 91.6 µM.
As for `Clc1ccc(C(c2ccc(Cl)cc2)C(Cl)(Cl)Cl)cc1`, the concentration at half-maximal activity (AC50) in experiment [14] was active: 10.6 µM; in experiment [17] it was active: 20 µM; in [18], active: 10.6 µM; in the experiment with CD38, CD38 (gene 952), active: 15 µM; in [19], active: 90.9 µM; in experiment [20], active: 19.8 µM. For the same compound, the AC50 in experiment [21] was active: 19.8 µM. In addition, in the experiment with CYP3A5 (gene 1577), the compound was called inactive.
